Measured values reported in the supplement of paper PMC6135742.
Where a name gives a salt, the structure may show the parent alone. ± gives the standard deviation of the averaged measurements. The full ranking holds about 2,600 compounds; the median of “total cell number (DAPI+ nuclei) relative to DMSO vehicle control” is about -1.4, and the lowest 2% start at about -23. This is one part of the list.

system: jimpy (Plp1 jimpy) mouse iPSC-derived oligodendrocyte progenitor cells; assay: total cell number (DAPI+ nuclei) relative to DMSO vehicle control (SDs above negative control mean); higher = more surviving cells; conditions: 10 µM; 3 days

Which total cell number does the source give for `CO[C@H]1/C=C/O[C@@]2(C)Oc3c(C)c(O)c4c(c3C2=O)C2=NC3(CCN(CC(C)C)CC3)NC2=C(NC(=O)/C(C)=C\C=C\[C@H](C)[C@H](O)[C@@H](C)[C@@H](O)[C@@H](C)[C@H](OC(C)=O)[C@@H]1C)C4=O` [Rifabutin] here?
Its total cell number is -6.51.

How did the total cell number turn out when `O=c1cc(-c2ccc(O)cc2)oc2cc(O)cc(O)c12` [Apigenin] was run?
Its total cell number is -2.8 ± 0.38.

`O=C1CN2Cc3c(ccc(Cl)c3Cl)N=C2N1` [Anagrelide HCl] was tested. Which total cell number did it give?
The total cell number was -0.876.

Which total cell number does the source give for `CN(C)Cc1c(C(=O)NCCOc2ccc(C(=O)NO)cc2)oc2ccccc12` here?
Its total cell number is -20.2.

With `CC(C)NCC(O)COc1ccc(COCCOC(C)C)cc1` (centres undefined) [Bisoprolol hemifumarate salt] as the molecule, how does the total cell number read?
Its total cell number is -1.73.

Which total cell number does the source give for `CC(C)NCC(O)COc1ccc(COCCOC(C)C)cc1` (centres undefined) [Bisoprolol fumarate] here?
The total cell number was -22.3.

With `CC(N)(C(=O)O)c1ccc(C(=O)O)cc1` (racemic) [(±)-alpha-Methyl-4-carboxyphenylglycine] as the molecule, how does the total cell number read?
Its total cell number is -1.73.

Which total cell number does the source give for `COc1ccc(-c2cc(=O)c3c(O)cc(O)cc3o2)cc1O` [Diosmetin] here?
The total cell number was -5.03.

How did the total cell number turn out when `CC(N)=O` [Acetamide] was run?
Its total cell number is 0.578.

Which total cell number does the source give for `CN1CC[C@H](c2c(O)cc(O)c3c(=O)cc(-c4ccccc4Cl)oc23)[C@H](O)C1` [Flavopiridol HCl] here?
Its total cell number is -8.34.

Which total cell number does the source give for `Nc1nc(Cl)nc2c1ncn2[C@@H]1O[C@H](CO)[C@@H](O)[C@@H]1F` [Clofarabine] here?
The total cell number was -21.2.

With `CC(C)CC(=O)Nc1n[nH]c2c1CN(C(=O)C1CCN(C)CC1)C2(C)C` as the molecule, how does the total cell number read?
Its total cell number is -14.7.

For `C=C1CC[C@H](O)C/C1=C/C=C1\CCC[C@]2(C)[C@@H]([C@H](C)CCCC(C)(C)O)CC[C@@H]12` [Calcifediol], which total cell number is on record?
Its total cell number is -1.15.

`O=C(NCCS(=O)(=O)c1ccc(C(F)(F)F)cn1)c1ccc(Cl)cc1` was tested. Which total cell number did it give?
Its total cell number is -0.0247.

`CC[C@H]1OC(=O)[C@H](C)[C@@H](O[C@H]2C[C@@](C)(OC)[C@@H](O)[C@H](C)O2)[C@H](C)[C@@H](O[C@@H]2O[C@H](C)C[C@H](N(C)C)[C@H]2O)[C@](C)(O)C[C@@H](C)/C(=N\OCOCCOC)[C@H](C)[C@@H](O)[C@]1(C)O` [Roxithromycin] was tested. Which total cell number did it give?
The total cell number was -0.808.

`O=C1NC(=O)[C@@]2(CCOc3ccc(F)cc32)N1` [Sorbinil] was tested. Which total cell number did it give?
Its total cell number is -1.06.

`CCc1cccc(N(C)C(=N)Nc2cccc3ccccc23)c1` was tested. Which total cell number did it give?
Its total cell number is -6.57.

Which total cell number does the source give for `O=C(N/N=C/c1ccc(O)c(O)c1)c1cc2ccccc2cc1O` [Dynasore] here?
Its total cell number is -11.3.

With `C=CC[C@@H]1/C=C(\C)C[C@H](C)C[C@H](OC)[C@H]2O[C@@](O)(C(=O)C(=O)N3CCCC[C@H]3C(=O)O[C@H](/C(C)=C/[C@@H]3CC[C@@H](O)[C@H](OC)C3)[C@H](C)[C@@H](O)CC1=O)[C@H](C)C[C@@H]2OC` [Tacrolimus (FK506)] as the molecule, how does the total cell number read?
The total cell number was -1.02.

`COc1ccc2[nH]cc(CCNC(C)=O)c2c1` [Melatonin] was tested. Which total cell number did it give?
The total cell number was -2.41 ± 0.65.

How did the total cell number turn out when `O=C([O-])c1ccccc1O.[Na+]` [Sodium salicylate] was run?
Its total cell number is -0.852.

For `Cc1ccc(C(=O)c2cc(O)c(O)c([N+](=O)[O-])c2)cc1` [Tolcapone], which total cell number is on record?
The total cell number was 1.26.

How did the total cell number turn out when `COc1ccc(COc2ccc(Cc3cnc(N)nc3N)cc2OC)cc1` was run?
Its total cell number is -0.98.

`CC(C)c1cccc(C(C)C)c1N1C(=O)c2ccc(O)cc2C1=O` was tested. Which total cell number did it give?
Its total cell number is -3.15.

With `COc1ccc(C(=O)NCc2cccnc2)cc1C(=O)NCc1cccnc1` [Picotamide] as the molecule, how does the total cell number read?
Its total cell number is -0.923.

With `COC(=O)C1=C(C)NC(C)=C(C(=O)OC)C1c1cccc(NC(=O)NCCCN2CCC(c3cccc(OC)c3)CC2)c1` as the molecule, how does the total cell number read?
The total cell number was -10.7.

For `CCN(Cc1ccncc1)C(=O)C(CO)c1ccccc1` (centres undefined) [Tropicamide], which total cell number is on record?
The total cell number was -0.607 ± 0.064.

With `CCCCCc1ccc(/C=C/C(=O)Nc2cc(Cl)ccc2C(=O)O)cc1` as the molecule, how does the total cell number read?
The total cell number was -1.71.

With `N=C(N)c1ccccc1` [Benzamidine hydrochloride] as the molecule, how does the total cell number read?
Its total cell number is -1.3.

How did the total cell number turn out when `CC(=O)O/N=C1\C(=O)N(Cc2cc(Cl)ccc2Cl)c2ccc(Cl)cc21` was run?
The total cell number was 0.904.

With `OC(CCN1CCCCC1)(c1ccccc1)C1CC2C=CC1C2` (centres undefined) [Biperiden hydrochloride] as the molecule, how does the total cell number read?
The total cell number was -0.289.

How did the total cell number turn out when `OC(CCN1CCCCC1)(c1ccccc1)C1CC2C=CC1C2` (centres undefined) [Biperiden HCl] was run?
The total cell number was 7.69.

With `CCN(CC)CC#CCOC(=O)C(O)(c1ccccc1)C1CCCCC1` (centres undefined) [Oxybutynin Chloride] as the molecule, how does the total cell number read?
The total cell number was 4.94.

`CCN(CC)CC#CCOC(=O)C(O)(c1ccccc1)C1CCCCC1` (centres undefined) [Oxybutynin chloride] was tested. Which total cell number did it give?
The total cell number was 6.83.

How did the total cell number turn out when `Cc1ncc([N+](=O)[O-])n1CCO` [Metronidazole] was run?
The total cell number was -1.54.

Which total cell number does the source give for `CN1C2CCCC1CC(NC(=O)c1nn(C)c3ccccc13)C2` (centres undefined) [Granisetron HCl] here?
Its total cell number is -0.125.

Which total cell number does the source give for `CN1C2CCCC1CC(NC(=O)c1nn(C)c3ccccc13)C2` (centres undefined) [Granisetron hydrochloride] here?
Its total cell number is -0.619.

`O=C(CCCN1CC=C(n2c(=O)[nH]c3ccccc32)CC1)c1ccc(F)cc1` [Droperidol] was tested. Which total cell number did it give?
Its total cell number is -1.63 ± 0.086.

Which total cell number does the source give for `CCO[C@@H]1OC(=O)C[C@@H]1NC(=O)[C@@H]1CCCN1C(=O)[C@@H](NC(=O)c1ccc(N)c(Cl)c1)C(C)(C)C` here?
Its total cell number is 0.277.

With `CCN(CC)CCNC(=O)c1cc(S(C)(=O)=O)ccc1OC` [Tiapride hydrochloride] as the molecule, how does the total cell number read?
Its total cell number is -1.15.

For `O=c1[nH]c2ccccc2c2ccccc12` [6(5H)-Phenanthridinone], which total cell number is on record?
Its total cell number is -3.66.

Which total cell number does the source give for `C#CCN(C)Cc1ccccc1` [Pargyline hydrochloride] here?
The total cell number was -1.07.

For `CCn1cc(C(=O)O)c(=O)c2ccc(C)nc21` [Nalidixic acid sodium], which total cell number is on record?
Its total cell number is -1.97.

For `CCn1cc(C(=O)O)c(=O)c2ccc(C)nc21` [Nalidixic acid], which total cell number is on record?
The total cell number was -2.1.

For `C[C@H]1[C@@H](O)O[C@@H]2O[C@@]3(C)CC[C@H]4[C@H](C)CC[C@@H]1[C@@]24OO3` [Dihydroartemisinin (DHA)], which total cell number is on record?
Its total cell number is -7.28.

With `COc1ccc(-c2oc3c(CC=C(C)C)c(O[C@@H]4O[C@H](CO)[C@@H](O)[C@H](O)[C@H]4O)cc(O)c3c(=O)c2O[C@@H]2O[C@@H](C)[C@H](O)[C@@H](O)[C@H]2O)cc1` [Icariin] as the molecule, how does the total cell number read?
The total cell number was -2.65.

How did the total cell number turn out when `Cc1cccc(/C=C/c2ccccc2)n1` was run?
Its total cell number is -0.752.

Which total cell number does the source give for `COc1ccc2cc(CCC(C)=O)ccc2c1` [Nabumetone] here?
The total cell number was -1.09.

Which total cell number does the source give for `c1ccc(C(NCCNC(c2ccccc2)c2ccccc2)c2ccccc2)cc1` here?
Its total cell number is -7.34.
